The record followed here is PubChem BioAssay AID1508624 (National Center for Advancing Translational Sciences (NCATS), 2021).

The structures appear in SMILES notation. About 120 (0.25%) of roughly 48,000 compounds were called active. Another 4% or so got no clear call; they are omitted. The call rests on the fitted dose curve; in most records, active means well fitted activation curve with a large enough effect; inconclusive means small, poorly fitted or top-dose-only effect, or another doubt; inactive means no such curve, though single readings can be large or run the other way. The list shows a part of the results.

This test is described as follows: Primary qHTS for Identification of Small Molecule Activators of Huntingtin-Antisense Promoter Activity. Further: nearly all actives have a fitted effect of over 55% in size. Conditions: HEK293 HTT-AS promoter firefly luciferase reporter, 24 h; series mostly up to 57.5 µM; activity change, positive = activation: at the top concentration. An excerpt:
Assay Provider: Russell L. Margolis M.D.
Department Neurology, Johns Hopkins University School of Medicine, Baltimore, MD
Huntington's Disease (HD) is a neurodegenerative disorder caused by a CAG repeat expansion in exon 1 of huntingtin (HTT). While there are currently no disease-modifying treatments for HD, recent efforts have focused on development of nucleotide-based therapeutics to lower HTT expression. As an alternative to siRNA or oligonucleotide methods, we hypothesized that suppression of HTT expression might be accomplished by small molecules that either (1) directly decrease HTT expression by suppressing HTT promoter activity or (2) indirectly decrease HTT expression by increasing the promoter activity of HTT-AS, the gene antisense to HTT that appears to inhibit expression of HTT.
We developed and employed a high throughput screen for modifiers of HTT and HTT-AS promoter activity using luminescent reporter HEK293 cells; of the 52,041 compounds tested, we identified 898 replicable hits. We used a rigorous stepwise approach to assess compound toxicity and the capacity of the compounds to specifically lower huntingtin protein in 5 different cell lines, including HEK293 cells, HD lymphoblastoid cells, mouse primary neurons, HD iPSCs differentiated into cortical-like neurons, and HD hESCs. We found no compounds which were able to lower huntingtin without lowering cell viability in all assays, though the potential efficacy of a few compounds at non-toxic doses could not be excluded.
SEQUENCE No. (1, 2, 3, etc.); […] (e.g., Cells, Incubation, Reagent, etc.); VALUE and DESCRIPTION.
1; Reagent; 4 uL; 2,500 Hek293 luciferase reporter cells per wells
3; Compound; 23 nL; Control inhibitor / compound library
5; Reagent; 2.5 uL; Firefly Luc reagent; Dual-Glo Luciferase Reporter Assay System (Promega)
6; Time; 10 min; room temperature incubation
7; Detection; Luminescence; FLuc
NOTES (numbers refer to sequence above)
1; High-throughput screening, measuring luminescence from a Hek293 luciferase reporter, was performed in 1,536 well white-walled tissue-culture treated plates. 2,500 cells were plated in 4 µL of Opti-MEM per well using a Multidrop Combi Reagent Dispenser (ThermoFisher).
2; Assay plates were cultured for 24 hours.
3; Control inhibitor (PTC124; final concentration of 50 uM) and compound library (at final concentrations of 460 nM - 57.5 uM) were added to the assay plate using the Kalypsis Pintool Robotic System equipped with 1536 pinheads.
4; Cells were then incubated for 24 hours at 37 degrees C prior to luminescence measurements.
5; In all cases, luminescence was measured using the Dual-Glo Luciferase Reporter Assay System (Promega) following the manufacturer's instructions.
6; Room temperature incubation.
7; Luminescence signal was obtained using the PerkinElmer ViewLux plate reader. Results were normalized to vehicle control (0% activity) and zero RLU (-100% activity).
For orientation: qHTS replaces the single test concentration by a dilution series.
`CSc1ccc(CNC(=O)CN2C(=O)C3CCCCN3c3ccc(C(=O)N4CCCC4)cc32)cc1` (stereo unspecified): the “activity change, positive = activation” value is inactive: -10.4%.
As for `CCOC(=O)C1CCN(C(=O)c2ccc3c(c2)sc2nc(-c4ccc(C)cc4)cn23)CC1`, the figure is inactive: 2.92%; as for `COc1ccc(NC(=O)c2cc(S(=O)(=O)NCCC3=CCCCC3)ccc2F)cc1`, inactive: -69.9%.
On to `COC(=O)c1cc2sc(C)cc2n1CC(=O)Nc1cccc(SC)c1`, for which the “activity change, positive = activation” value was inactive: 5.52%.
As for `O=S(=O)(NCc1nc2cccnc2n1Cc1ccc(F)cc1)c1ccc(Cl)s1`, the figure is inactive: -24.2%.
Regarding `COc1ccc(-c2nc3cc(C(C)C)ccc3o2)cc1NC(=O)c1ccc(C)c(Cl)c1`, the “activity change, positive = activation” value is inactive: 3.98%.
As for `CCc1ccc(NC(=O)C2CCN(S(=O)(=O)c3c(C)noc3/C=C/c3ccco3)CC2)cc1`, the “activity change, positive = activation” value is inactive: -13.3%.
For the molecule `FC(F)(F)c1ccc(-c2noc(-c3ccccc3Br)n2)cc1`, the “activity change, positive = activation” value was inactive: -27.2%.
Take `CCC12CN3CC(C)(CN(C1)C3c1c[nH]c3ccc(OC)cc13)C2=O` (stereo unspecified): the “activity change, positive = activation” value is inactive: -5.63%.
For `CCN(CC)C(=O)c1sc2c(c1C)c(=O)n(-c1ccc(C)c(C)c1)c(=O)n2Cc1cccc(Cl)c1` the value was inactive: -29.9%; for `CCOC(=O)C1CCCN(C(=O)CCS(=O)(=O)c2cc3c(cc2Cl)NC(=O)CO3)C1` (stereo unspecified), inactive: -17.7%; for `CCC(Sc1nc2cc3c(cc2c(=O)n1CCCC(=O)NCc1ccc(OC)cc1)OCO3)C(=O)NCCCOC` (stereo unspecified), inactive: -2.56%.
`Cc1ccc(OCC(=O)Nc2ccc3nc(SCC(=O)N4CCOCC4)sc3c2)cc1C`: the “activity change, positive = activation” value was inactive: -16.3%.
For the molecule `Cc1ccc2cccc(NC(=O)c3ccc(C#N)cc3F)c2n1`, the “activity change, positive = activation” value is inactive: -13.7%.
As for `Cc1ccccc1NC(=O)Cn1c(=O)n(CCC(=O)NCc2ccc3c(c2)OCO3)c(=O)c2sccc21`, the “activity change, positive = activation” value is inactive: -18.7%.
Regarding `CC(=O)N1CCc2cc(CNS(=O)(=O)c3ccc(C(C)(C)C)cc3)ccc21`, the “activity change, positive = activation” value was inactive: -34%.
For `O=C1CN(C(=O)c2ccc(S(=O)(=O)N3CCCCC3)cc2)C(c2ccc(F)cc2)c2cc(Br)ccc2N1` (stereo unspecified) the value was inactive: -24.1%; for `Cc1ccccc1C(=O)NC1(C(F)(F)F)N=C(c2ccccc2)N(Cc2ccccc2)C1=O` (stereo unspecified), inactive: -18.4%; for `COc1cccc(-c2cc(C(F)(F)F)n3nc(C)c(-c4ccccc4)c3n2)c1`, inactive: -4.84%.
For `O=C(COc1ccccc1[N+](=O)[O-])Nc1cc(-c2nc3cc(Cl)ccc3o2)ccc1Cl` the value was inactive: 10.7%; for `COC(=O)c1ccc(Oc2nc3c(c(=O)n(C)c(=O)n3C)n2C(C)C)cc1`, inactive: 1.73%; for `CCc1ccccc1N(C)C(=O)c1nn(C)c2c1CSc1ccccc1-2`, inactive: 1.88%.
As for `CCCCNC(=O)CSc1nc2cc3c(cc2c(=O)n1CCCCCC(=O)NCCc1ccc(OC)c(OC)c1)OCO3`, the figure is inactive: -3.74%.
Turning to `Cc1ccc2nc(N3CCC(C(=O)NCc4ccc(F)cc4)CC3)[nH]c2c1`, the “activity change, positive = activation” value is inactive: 1.54%.
As to `Cc1ccc2nc(COc3cccc(NC(=O)c4cccc(Cl)c4)c3)cc(=O)n2c1`, the “activity change, positive = activation” value was inactive: -2.9%.
As for `Cc1cc(C)c(S(=O)(=O)NCc2csc(-c3ccccc3)n2)c(C)c1`, the figure is inactive: -29.3%; as for `Cc1c(CC(=O)NCCc2ccccc2F)c(=O)oc2cc(O)c(Cl)cc12`, inactive: -7.5%.
As to `Cc1ccc(-n2ncc3c(N(CC(C)C)CC(C)C)ncnc32)c(C)c1`, the “activity change, positive = activation” value is inactive: -18.7%.
Regarding `Cc1ccc(NC(=O)c2c(C)oc3ccc(O)c(CN4CCCCCC4)c23)cc1`, the “activity change, positive = activation” value is inactive: -18.7%.
For `CC(C)S(=O)(=O)c1oc(-c2cccs2)nc1S(=O)(=O)c1ccc(F)cc1` the value was inactive: -93.5%; for `Cc1ccc(CCNC(=O)c2c(C)oc3nc(C)nc(N4CCOCC4)c23)cc1`, inactive: 0.743%; for `CCN(CCCNC(=O)c1cc(Nc2ccc(OC)cc2OC)nc2ccccc12)c1cccc(C)c1`, inactive: -28.1%.
On to `Cn1cc(-c2cc3n(n2)CCC(=O)N3CC(=O)NCc2ccc(Cl)cc2)c2ccccc21`, for which the “activity change, positive = activation” value is inactive: -22.6%.
For `COc1ccc(-c2onc(C)c2C)cc1S(=O)(=O)N1CCN(c2ccc(Cl)cc2)CC1` the value was inactive: -11.9%; for `O=C(C=Cc1cccnc1)NCCCCC1CCN(C(=O)c2ccccc2)CC1`, inactive: -27.3%; for `CC(C)OC(=O)c1c(NC(=O)COc2cccc(Br)c2)sc2c1CCCC2`, inactive: 7.11%.
In the case of `O=C(CSc1nc2c([nH]c3ccccc32)c(=O)n1-c1ccccc1)N1CCOCC1`, the “activity change, positive = activation” value is inactive: -8.93%.
For `CC(CNC(=O)C1CCN(S(=O)(=O)c2ccc3c(ccn3C)c2)CC1)c1ccccc1` (stereo unspecified) the value was inactive: -22.8%; for `CCN(CC)CCn1c(-c2ccccc2)csc1=Nc1ccccc1`, inactive: 16%; for `Nc1nonc1C(=O)NCCNCc1cccc(Cl)c1Cl`, inactive: -6.7%.
Take `O=C1CC(c2cccc(O)c2)c2cc3c(cc2N1)OCO3` (stereo unspecified): the “activity change, positive = activation” value was inactive: -13.2%.
For `CCCCN(CC)CCCNC(=O)C1CCCN(c2ncnc3c2nc2n3CCCCC2)C1` (stereo unspecified) the value was inactive: -9.67% [at 11.5 µM, percent change from vehicle, -100% = no light]; for `COc1ccc(NC(=O)Cn2c(=O)n(Cc3ccccc3Cl)c(=O)c3cc(OC)c(OC)cc32)cc1OC`, inactive: -4.77%; for `CCOc1cccc(NC(=O)C2CC(=O)N(C)C(=Nc3ccc(F)cc3)S2)c1` (stereo unspecified), inactive: -6.89%.
Consider `O=C(c1ccc(Br)s1)N(Cc1cccnc1)c1nc2ccc(F)cc2s1`, for which the “activity change, positive = activation” value was inactive: 12.4%.
As to `CCOc1ccccc1NC(=O)CN1C(=O)COc2ccc(S(=O)(=O)N3CCCCC3)cc21`, the “activity change, positive = activation” value is inactive: -7.4%.
